From PubChem BioAssay AID1508624 (National Center for Advancing Translational Sciences (NCATS), 2021)
Hit rate of the full screen: of about 48,000 compounds, about 120 (0.25%) were called active. Inconclusive results (about 4%) are left out. Calls come from the whole dose curve; as a rule, active = well fitted activation curve with a large enough effect; inconclusive = small, poorly fitted or top-dose-only effect, or another doubt; inactive = no such curve, though single readings can be large or run the other way. Some of the results follow.

test: Primary qHTS for Identification of Small Molecule Activators of Huntingtin-Antisense Promoter Activity; conditions: HEK293 HTT-AS promoter firefly luciferase reporter, 24 h; series mostly up to 57.5 µM; activity change, positive = activation: at the top concentration; note: nearly all actives have a fitted effect of over 55% in size
In short: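 HEK293 cells carrying firefly luciferase reporters were seeded at 2,500 per well in Opti-MEM and cultured for 24 h. They were then treated with compounds at up to 57.5 uM final for 24 h at 37 degrees C before Dual-Glo luminescence readout.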

Activity change, positive = activation, inactive:
CCOc1ccc(C(c2c(O)cc(C)n(Cc3ccco3)c2=O)N2CCN(c3ccccc3)CC2)cc1 (centres undefined) -7.52%
Cc1cccc(CNC(=O)C2CCN(S(=O)(=O)c3ccc4c(c3)CCCN4C(=O)C3CCC3)CC2)c1 0%
CCCc1cnc2c(c1SCC(=O)Nc1ccccc1F)c(=O)n(C)c(=O)n2C -25.9%
Cc1ccc(C2C=C(c3ccc(Cl)cc3)Nc3nc(NC(=O)c4ccco4)nn32)cc1 (centres undefined) -49.5%
COc1cc(Nc2ncc3c(n2)CCN(Cc2cc(F)cc(F)c2)C3)cc(OC)c1 -34%
CCc1nn(Cc2c(C)cc(C)cc2C)c(=O)c2cc3cc(C)ccc3n12 -7.49%
O=C(Nc1ccc(F)cc1F)N1CCN(c2ccc(Cl)c(Cl)c2)CC1 -28.3%
CCCC12CN3CC(CCC)(CN(C1)C3c1c(C)[nH]c(=O)[nH]c1=O)C2=O (centres undefined) 3.54%
CC1CN(C(=O)CCC(=O)NCc2ccccc2)c2cc(Cl)ccc2O1 (centres undefined) 1.53%
Cc1ccc(Cl)cc1NC(=O)Cn1ncc2c(C)n(Cc3ccccc3F)c(C)c2c1=O -27.4%
COc1ccc(-c2nc(-c3ccccc3)c(-c3ccc(F)cc3)[nH]2)c(OC)c1C -23.1%
Cc1cc(C)cc(N2C(=O)CCSC23C(=O)N(Cc2ccccc2)c2ccccc23)c1 (centres undefined) -17.8%
O=S(=O)(NCCc1csc2nc(-c3ccc(F)cc3)nn12)c1ccc(Oc2ccccc2)cc1 -38.5%
CCOc1ccc(CCNC(=O)c2ccc3c(c2)sc2nc(-c4ccc(F)cc4)cn23)cc1OCC -16.4%
Cc1ccc(C(CC(=O)Nc2ccc(F)c(Cl)c2)N2Cc3ccccc3C2=O)cc1 (centres undefined) -12.7%
COc1cccc(NC(=O)N(Cc2c[nH]c3ccccc23)C2CCCCC2)c1 9.16%
COc1cccc(CNCCSc2nnnn2C)c1OCc1ccc(F)cc1 -19.9%
CC(C)c1ccc(NC(=O)CCn2c(=O)c3cccn3c3ccccc32)cc1 -15%
CCOC(=O)c1ccn(-c2nc(-c3cccc(OC)c3)cc(C(F)(F)F)n2)n1 -24.2%
Cc1ccc(N2CC(NC(=O)C3CC3)CC2=O)cc1C (centres undefined) -6.16%
COc1cc(C(=O)Nc2nonc2-c2ccc(Cl)cc2)cc(OC)c1OC -42.4%
Cc1nc2sccn2c(=O)c1S(=O)(=O)Nc1ccc(N2CCN(C(=O)C(C)C)CC2)cc1 -15.9%
CCOC(=O)c1[nH]c(C)c(CCC(=O)Nc2ccc(Br)c(C)c2)c1C -24%
CC1CCN(S(=O)(=O)c2ccc3c(c2)N(CC(=O)NCCCN2CCCC(C)C2)C(=O)CS3)CC1 (centres undefined) -0.178%
Cc1cccc(CNC(=O)c2ccc(NC(=O)N3CCSc4ncccc43)cc2)c1 -5.01%
CCN(CC)CCN -5.07%
CCOc1ccc(NC(=O)C(C)Sc2nc3ncccc3o2)cc1 (centres undefined) 22.7%
Cc1cccc(NC(=O)c2oc3ccc(S(=O)(=O)N4CCC5(CC4)OCCO5)cc3c2C)c1C -40%
COc1ccc(-n2nc(C(=O)Nc3cccc(C)n3)c3c4ccccc4n(C)c3c2=O)cc1 -12.1%
CC(=O)c1ccc(N2CCN(c3ncnc4c3cnn4C)CC2)cc1 -9.13%
Cc1ccc2c(c1)-c1ncc(C(=O)c3cc(Br)ccc3O)cc1CO2 -24.1%
COc1ccc(C)cc1NC(=O)CN1C(=O)COc2ccc(S(=O)(=O)NC3CCCC3)cc21 -22.4%
CCOc1ccccc1NC(=O)c1nn(C)c2c1CSc1ccccc1-2 -7.54%
CCOc1ccc(-c2csc(-c3c(N)c(C(=O)c4ccc5c(c4)OCO5)n4ccccc34)n2)cc1 11.2%
Cn1nc(-c2ccc(N3CCCCC3)c(NC(=O)c3ccc(Cl)cc3)c2)c2ccccc2c1=O 16.2%
CN(C)CCNC(=O)c1ccc(Cn2c(=O)c3cccn3c3cccnc32)cc1 -8.74%
CCOC(=O)c1cc(S(=O)(=O)Nc2ccccc2OCC)[nH]n1 -12.2%
Cc1ccccc1CSc1nc2c([nH]c3ccccc32)c(=O)n1C -8.33%
COc1ccc(-n2c(=O)c3c4c(sc3n3c(SC(C)C)nnc23)COC(C(C)C)C4)cc1 (centres undefined) -2.39%
CCCc1cc(=O)[nH]c(SCc2nc(-c3ccccc3F)no2)n1 -1.21%
CCCn1c(=NC(=O)c2c(-c3c(F)cccc3Cl)noc2C)c(C(=O)OCC)cc2c(=O)n3ccccc3nc21 2.92%
CC(=O)c1cccc(Nc2ccc3cc(S(=O)(=O)N4CCCC4)ccc3n2)c1 -18.9%
Cc1ccc(-n2ncc(C(=O)NCCN3CCc4ccccc4C3)c2C2CCNCC2)cc1C -5.13%
COc1ccc(NC(=O)c2cc(=O)c3ccc(C)c(C)c3o2)cc1Cl 10.7% [at 11.5 µM, percent change from vehicle, -100% = no light]
COc1ccccc1-c1cc(C(F)(F)F)nc(S(=O)(=O)CCCC(=O)Nc2ccc(F)cc2F)n1 -92.2%
O=C(Cn1c(=O)n(Cc2nc(-c3ccccc3)no2)c(=O)c2cc3c(cc21)OCO3)Nc1cccc(C(F)(F)F)c1 -18.9%
COc1ccc(-c2ccc(CCC(=O)O)n2-c2cc(Cl)ccc2O)cc1 11%
COc1cccc(C2CC(=O)Nc3c2c(=O)n(C)c2nc4ccccc4n32)c1 (centres undefined) -16.7%
CCOC(=O)c1c(C)[nH]c(C)c1S(=O)(=O)N(C)CC(=O)Nc1cccc(C(F)(F)F)c1 -26.7%
CCOC(=O)C1CCN(C(=O)Cn2ncc3c([nH]c4ccccc43)c2=O)CC1 -6%
CCC(C)N(C)C(=O)c1cc2ccccc2c(-c2ccccc2Cl)n1 (centres undefined) -18.6%
Cc1cccc(C(=O)Nc2nc(-c3nnn(-c4cc(C)ccc4C)c3C)ns2)c1 -80.1%
Cc1cc(C)cc(NC(=O)Cn2c(=O)n(Cc3ccc4c(c3)OCO4)c(=O)c3oc4ccccc4c32)c1 -4.65%
Cc1cccc(CNC(=O)Cn2ccc3cc(S(=O)(=O)N4CCC(C)CC4)ccc32)c1 -17%
COc1cc(OC)cc(C(=O)Nc2ccc3nc(N4CCC(C)CC4)cc(C)c3c2)c1 -35.1%
COc1cccc(C(=O)Nc2nnc(S(=O)(=O)N3CCOCC3)s2)c1 -12.9%
CCCCOc1cccc(C(=O)Nc2cccc3ccc(C)nc23)c1 -7.85%
Cc1ccc(CS(=O)(=O)Cc2ccc(C(=O)NCCc3ccc(Cl)cc3)o2)cc1 -11.7%
Cc1cc(C)c2c(=O)cc(C(=O)Nc3ccccc3Cl)oc2c1 14.6% [at 11.5 µM, percent change from vehicle, -100% = no light]
